# Experimental data taken from paper PMC12136788.
# Residue numbers refer to the chain shown, from its start. The list shows a part of the results.
# T1: UNK ZnF1-3 (human, UniProt Q9C0B0 31-174)
# T1 sequence: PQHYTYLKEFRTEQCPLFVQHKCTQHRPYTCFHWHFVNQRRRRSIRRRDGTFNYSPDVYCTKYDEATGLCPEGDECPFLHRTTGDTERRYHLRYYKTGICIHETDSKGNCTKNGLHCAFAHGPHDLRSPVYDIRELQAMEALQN
# B1: chr1:58468927:58468928:-_ENSMUSG00000026034_ENSMUST00000148330|mus_mus|mus_mus_mus_hu_False|1_38 (ssRNA)
# RNA: GGGAGUUCUACAGUCCGACGAUCAAUUACUGAAAAAGAUGUUCAUUACCUUAGCUAUGUACUUAAUGAACCAAAUUACCCAAACAAAAUAAACAUGUUUACAAAUUAAUGUUAAGAAUUUACAAAGCUGUACAAAAAGACUGACAACAGAGGAUUGAGCAUCA
# B2: chr18:56819859:56819860:+_ENSG00000166562_ENST00000588875|hu_mus|hu_hu_hu_mus_True|78_78 (ssRNA)
# RNA: GGGAGUUCUACAGUCCGACGAUCAACCUUGAUUACUCUGUGAACUAUCGGAAUGUCUCGUCCUUCAACCUUAAAAACAACUAUUUCACCAGCUCUGAUGGGGUCCUCCCGGAAAUUCGUGAGGAACAGCAGAUCUCCUCUGUGCAACAGAGGAUUGAGCAUCA
# B3: chr12:111929536:111929537:-_ENSMUSG00000021270_ENSMUST00000094361|mus_hu|FALSE|FALSE (ssRNA)
# RNA: GGGAGUUCUACAGUCCGACGAUCAGCUCAGAACACUUCAAUAACAAGAUUUGGUCUACUUAGGCAUCCGGCUUGACAGCUAAACACUUUAGACCACAAAGUUAACAUCAUGUUACAUACGUCUUACAGUGCACGUUACCCCAACAACAGAGGAUUGAGCAUCA
# B4: chr3:176767854:176767855:-_ENSG00000177565_ENST00000430069|hu_hu|hu_hu_hu_mus_False|18_48 (ssRNA)
# RNA: GGGAGUUCUACAGUCCGACGAUCGACAUCCUUGUUACUGGGCACGUCCUGCCCUCCUUCCCGUAUGCAGUGUCUAAGCACGAGCUGUGUAGAGCCACUCGUGCUGUUCUCACUGAGAUUCCAUAUUCUUGCCGUGGAGUCUCCCAACAGAGGAUUGAGCAUCA
# B5: chr2:32339754:32339755:+_ENSG00000021574_ENST00000315285|hu_hu|motif|central (ssRNA)
# RNA: GGGAGUUCUACAGUCCGACGAUCGCCUGAAAGGCCUGCAGAUCCAGUUUUCAUAACUGUUUUUGAACGAGGCAGUGAAUUACGGGUGUGUGUUAAGGGGUCUUUUCUUUUUGGAACAGCUCCACUUUCUGACUGGAGAUGUCCCAACAGAGGAUUGAGCAUCA
# B6: chr11:77336104:77336105:-_ENSG00000074201_ENST00000525064|hu_mus|hu_hu_hu_mus_False|48_98 (ssRNA)
# RNA: GGGAGUUCUACAGUCCGACGAUCCUCACACAUUGCUGUGAACAUUGCCUCCAAUGCUGACUUAUCACUGGGCACAAAUCGAAAUUCAGUAAUAGGUUCAACAUCAUCAUUGUCUUCCUCAUCUUCAUCAGAGAGAGGUUCUUUCAACAGAGGAUUGAGCAUCA
# B7: chr1:39494447:39494448:+_ENSG00000168653_ENST00000372967|hu_mus|hu_hu_hu_mus_False|18_58 (ssRNA)
# RNA: GGGAGUUCUACAGUCCGACGAUCGCACCGAGCGGCGUUCUUAUAGGGCUGUUCUGCGCUUAGGAACAUAAAGUGCCGAUCUAUGUUGAUGCCCAGCUUUUUCUGUAUGUCAAGGAAAGGCAUGGCCCUGCAGUGCCCUUGUCACAACAGAGGAUUGAGCAUCA
# B8: chr18:65376317:65376318:+_ENSMUSG00000024589_ENSMUST00000163516|mus_hu|motif|central (ssRNA)
# RNA: GGGAGUUCUACAGUCCGACGAUCUUUCAUGCCAACAGGAAGCUAACCCUUUUCUAGAAAACGUUCUCCAAGCUCCCGUCCGGAUGCUGUGGCACUUUCUCUGACAUACUGAGAACACUCUGGGGUGGGGGUGUGUGUAUGCAACAACAGAGGAUUGAGCAUCA
# B9: 110260516_110260636_141_5pUTR_ENSMUSG00000020623_ENSMUST00000020949|mouse|control|control (ssRNA)
# RNA: GGGAGUUCUACAGUCCGACGAUCCUGCAGGCGUGCAAUCUUCAUGCAAGUGGAGUUUCUCUUGACCGAUGCAGCAGAUGGACUUUCAGGGAGUCAAGGUGGAAUUGCACACCUUGCAAAACAGUCUAGAAAGUGAUUUUUCCCCAACAGAGGAUUGAGCAUCA
# B10: chr14:66974463:66974464:+_ENSMUSG00000022044_ENSMUST00000074523|mus_hu|mus_mus_mus_hu_False|48_78 (ssRNA)
# RNA: GGGAGUUCUACAGUCCGACGAUCUUGUAGGACGACUUAUUCAGGGGAUCGGCCAGGAAGCAAGAGCAGAACAAGGACACCAGCGGGAGUUCCUUCAUCUUCUCUUUGUAGGCAGCAAGGGUCAUGUUUCUGGGAUCUGGUGGCCAACAGAGGAUUGAGCAUCA
# B11: 61648417_61664575_770_CDS_ENSMUSG00000004798_ENSMUST00000004920|mouse|control|control (ssRNA)
# RNA: GGGAGUUCUACAGUCCGACGAUCAAACACUCUGAUAGUAUCUUCACUCAGAGUUCCUUUAGCUUGCAAAUAAUCUGCCAGGUCUCCACCAUUGCAAUACUCCAUCACCAGAAAGACAGAGUUGGGCAAUUCCUGAACAUCAUACAACAGAGGAUUGAGCAUCA
# B12: chr12:57066556:57066557:-_ENSG00000110958_ENST00000262033|hu_mus|FALSE|FALSE (ssRNA)
# RNA: GGGAGUUCUACAGUCCGACGAUCGUCUGUUCUUUUAUGCUUGGAAUCAUUUGGAUCGAUACAAUGAAAAAGAUCAAUUUCAUUUAAAUGCUUAAAAUUAUCGCUUCCUCCAAGACAACUGAAAGUAAGUUUGGAUUUUUCAAACAACAGAGGAUUGAGCAUCA
# B13: chr16:94690367:94690368:+_ENSMUSG00000040785_ENSMUST00000117648|mus_hu|FALSE|FALSE (ssRNA)
# RNA: GGGAGUUCUACAGUCCGACGAUCCUAUAUUUACCACUGUCUAAAAGUCACAAAACAAUAUCUAAUUUUUUCAUGGUUUCUAAUGCAGUUACAGUUUUGUUCUUAGGUCACAGUACAAGACUGCAUGCAUACUUUACACAAAUACAACAGAGGAUUGAGCAUCA
# B14: chr12:39756943:39756944:-_ENSG00000139116_ENST00000544797|hu_mus|hu_hu_hu_mus_False|1_28 (ssRNA)
# RNA: GGGAGUUCUACAGUCCGACGAUCGGUUUGGCUGUUACCCCCAAGGGAAUCCUGCAAGAGUCUUGUCAGCUUAGAGUCUCUGUAAGGGACAUGGGUGGCUCUCUUGCUCUUGUCUCCCAAGGCGCUGAUUACAUUCCCAAGUGCCAACAGAGGAUUGAGCAUCA
# B15: chr3:19126325:19126326:-_ENSMUSG00000069094_ENSMUST00000091314|mus_mus|FALSE|FALSE (ssRNA)
# RNA: GGGAGUUCUACAGUCCGACGAUCGCUUGCUCUACAUAAGACCACUGAAAACAACUUACAAAAGUGGAAUGUUUUAAGUCUAAAAUUAGUCCUUAAAUUUUAUCCUAGAAAACAUCUACUCACAUCAAAAGGUCCGCCAAAGGGCAACAGAGGAUUGAGCAUCA
# B16: chr9:95013113:95013114:-_ENSG00000196305_ENST00000443024|hu_hu|hu_hu_hu_mus_False|8_78 (ssRNA)
# RNA: GGGAGUUCUACAGUCCGACGAUCCUCAGUCAGAAAGGGCGUGUAAGGGGCCAUCAGUCUGCAAAGAGAAAGCAGGACACUGAACAGUGUCUCCAGAGCCAUGACACAGUCUUCCACCCCACUCUCACCCUUUAAUCUCCUCCUCAACAGAGGAUUGAGCAUCA
# B17: chr5:46091440:46091441:-_ENSMUSG00000015882_ENSMUST00000045586|mus_hu|FALSE|FALSE (ssRNA)
# RNA: GGGAGUUCUACAGUCCGACGAUCUUGGUGAUAUCUGCCUGGGAAAUCUCUCUUCCUAAAGUAUUUGUAUAUGGGAGUCCUUGUUUGUGAAUGUUUCCUGGAUUAGGGAGGUGUCAACAUAAAUGUAUUAUUAACCAUGAAGCUCAACAGAGGAUUGAGCAUCA
# B18: chr1:39494447:39494448:+_ENSG00000168653_ENST00000372967|hu_mus|hu_hu_hu_mus_False|18_108 (ssRNA)
# RNA: B7 RNA with C27U, G31C, G33A, G36C, A78G, U81C, U83G, U85C
# B19: chr4:48853911:48853912:+_ENSG00000109180_ENST00000264312|hu_mus|FALSE|FALSE (ssRNA)
# RNA: GGGAGUUCUACAGUCCGACGAUCCUCGUUCAUAGAAGCACUAAAUGGAAUUGGCUCAUAACGAGGAAGCGCCUCCUUUUCUAUGUUGUCUGCUGCUGGAGAUGUCCCGAAAGAGGACUGACCACUCACAUUUGAGUCAAAUUUCAACAGAGGAUUGAGCAUCA
# B20: chr14:66974463:66974464:+_ENSMUSG00000022044_ENSMUST00000074523|mus_hu|mus_mus_mus_hu_False|18_28 (ssRNA)
# RNA: B10 RNA with A62G, U89C, G107A, A113U, G119A
# B21: chr9:64573345:64573346:-_ENSMUSG00000004771_ENSMUST00000172298|mus_hu|FALSE|FALSE (ssRNA)
# RNA: GGGAGUUCUACAGUCCGACGAUCAGAAACAAUGCGGUAAAUCUCUGUUAAAAUUGUCUGAAAAGCAGCUUCUACAUUUGUAGAGUCUAGGGCCGAAGUUUCAAUGAAUGACAAACCAUUCUUUUCUGCAAAAGCUCUUGCUUCCAACAGAGGAUUGAGCAUCA
# B22: chr17:65740002:65740003:+_ENSG00000130935_ENST00000581375|hu_hu|hu_hu_hu_mus_False|58_88 (ssRNA)
# RNA: GGGAGUUCUACAGUCCGACGAUCAACAAAUCUUUCUUCCCUGGACGCAAGAGUUCAUUCAUAUUAAAAAAAAUAUAUGUCUAUGAAGUUAGGUGUGGUGGCCACACCUUUACUCCCAGCACUUUGGGAGGUGGAUCUCUGAGUCAACAGAGGAUUGAGCAUCA
# Target: T1, UNK ZnF1-3
# Assay: nsRBNS (natural sequence RNA bind-n-seq); RBNS binding buffer (assumed for nsRBNS): 25 mM Tris pH 7.5, 150 mM KCl, 3 mM MgCl2, 0.01% Triton X-100, 500 ug/ml BSA, 20 U/ml SUPERase-In, 4 C; UNK is unkempt and MSI1 is Musashi-1; names of the RNAs are library labels; protein concentration not given here; high values mean tight binding
row,Binder,binding signal [enrichment R]
1,B1,1
2,B2,0.859
3,B3,0.787
4,B4,0.397
5,B5,0.777
6,B6,0.784
7,B7,0.78
8,B8,1.03
9,B9,0.878
10,B10,2.53
11,B11,1.26
12,B12,0.829
13,B13,0.548
14,B14,0.644
15,B15,1.04
16,B16,1.16
17,B17,1.61
18,B18,0.963
19,B19,1.45
20,B20,2.06
21,B21,0.8
22,B22,1.03
